PubChem BioAssay AID686979 (National Center for Advancing Translational Sciences (NCATS), 2013)
About 50,000 (12%) of roughly 420,000 compounds were called active. Inconclusive means that the source gave no clear call. Such entries were picked first, then a sample of the others. Calls follow the shape of the dose curve; as a rule, active = well fitted inhibition curve with a large enough effect; inconclusive = small, poorly fitted or top-dose-only effect; inactive = flat fitted curve, though single readings scatter. Potencies of inconclusive entries are left out as doubtful fits.

Assay: qHTS for Inhibitors of human tyrosyl-DNA phosphodiesterase 1 (TDP1): qHTS in cells in presence of CPT; also: nearly all actives have a fitted effect of over 55% in size
Details: chicken DT40 Tdp1-/-;hTDP1 cells + 20 nM CPT, ATP luminescence, 48 h; series mostly up to 46.2 µM
Method in brief: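 Chicken DT40 Tdp1-/- cells complemented with human TDP1, 400 cells/well, exposed to compounds plus 20 nM camptothecin for at least 48 h at 37 C; viability read as ATP content by CellTiter-Glo luminescence.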
Potency is read from the fitted curve at half-maximal effect; tags tell the direction and shape of the fitted curve.

Row | SMILES | Potency
1 | Cc1c(NC(=O)C(C)Oc2ccccc2F)c(=O)n(-c2ccccc2)n1C (centres undefined) | inactive
2 | Cc1cc(C)n(-c2ccc(C(=O)Nc3ccc(C)c(S(=O)(=O)N(C)C)c3)cc2)n1 | inconclusive [inhibitor, single point]
3 | CCC(C)c1nc2c(c(N3CCC3=O)c1-c1ccccc1)CCCC2 (centres undefined) | active: 18.4 µM
4 | Cn1c(=O)c2c(ncn2CC(=O)N/N=C/C(Cl)=C/c2ccccc2)n(C)c1=O | inconclusive [inhibitor, single point]
5 | CCCCS/C(N)=N/N=C/c1ccccc1O | inconclusive [inhibitor, single point]
6 | CN(C)CCCn1c(=S)[nH]c2sc3c(c2c1=O)CCCC3 | inactive
7 | COC(=O)[C@]1(Cc2ccccc2)N[C@H](CN(C)C(=O)c2ccc(C)cc2)[C@@H]2C(=O)N(Cc3ccccc3)C(=O)[C@@H]21 | inconclusive [inhibitor, single point]
8 | Cc1ccc(-n2ncc(C(=O)O)c2C2CCN(C(=O)OC(C)(C)C)CC2)cc1 | inactive
9 | COc1cccc(C2CC(=O)N3CN(c4cccc(Cl)c4C)CSC3=C2C#N)c1OC (centres undefined) | inconclusive [inhibitor, single point]
10 | COc1c2c(nc3ccccc13)OC(C(C)(O)CO)C2 (centres undefined) | inactive
11 | Cc1cccc(C(=O)NCC(=O)N2CCC2)c1 | inactive
12 | COc1cccc(C(=O)Nc2ccc(Cl)c(C(F)(F)F)c2)c1 | inconclusive [inhibitor, single point]
13 | NS(=O)(=O)c1ccc(NC(=O)c2ccc(Cl)c(S(=O)(=O)NCc3ccco3)c2)cc1 | inconclusive [inhibitor, partial curve]
14 | Cc1ccc(S(=O)(=O)CCC(=O)Nc2ccc3nc(C)sc3c2)cc1 | inconclusive [inhibitor, single point]
15 | O=C(/C=C/N1CCOCC1)c1ccc(-c2ccccc2)cc1 | inconclusive [inhibitor, partial curve, poor fit]
16 | O=C1/C(=C/c2cccnc2)CCc2c1[nH]c1ccccc21 | active: 18.4 µM
17 | CCc1nc2ccc(C(=O)N3CCN(S(=O)(=O)CC)CC3)cn2c1N(C)Cc1cccs1 | inconclusive [inhibitor, single point]
18 | CCSc1nsc(NC(=O)Nc2ccccc2Cl)n1 | inconclusive [inhibitor, single point]
19 | Cc1cccc(-n2c(SCC(=O)N3CC(=O)Nc4ccccc43)nc3ccccc3c2=O)c1 | inconclusive [inhibitor, single point]
